# Source: the supplement of paper PMC3334620
# Over roughly 33,000 sequences, “E-score (-0.5 to 0.5)” has its median near -0.011; the highest 2% begin near 0.28. Some of the results follow.
# Biological target: T1, Gcr1 (UniProt P07261)
# T1 sequence: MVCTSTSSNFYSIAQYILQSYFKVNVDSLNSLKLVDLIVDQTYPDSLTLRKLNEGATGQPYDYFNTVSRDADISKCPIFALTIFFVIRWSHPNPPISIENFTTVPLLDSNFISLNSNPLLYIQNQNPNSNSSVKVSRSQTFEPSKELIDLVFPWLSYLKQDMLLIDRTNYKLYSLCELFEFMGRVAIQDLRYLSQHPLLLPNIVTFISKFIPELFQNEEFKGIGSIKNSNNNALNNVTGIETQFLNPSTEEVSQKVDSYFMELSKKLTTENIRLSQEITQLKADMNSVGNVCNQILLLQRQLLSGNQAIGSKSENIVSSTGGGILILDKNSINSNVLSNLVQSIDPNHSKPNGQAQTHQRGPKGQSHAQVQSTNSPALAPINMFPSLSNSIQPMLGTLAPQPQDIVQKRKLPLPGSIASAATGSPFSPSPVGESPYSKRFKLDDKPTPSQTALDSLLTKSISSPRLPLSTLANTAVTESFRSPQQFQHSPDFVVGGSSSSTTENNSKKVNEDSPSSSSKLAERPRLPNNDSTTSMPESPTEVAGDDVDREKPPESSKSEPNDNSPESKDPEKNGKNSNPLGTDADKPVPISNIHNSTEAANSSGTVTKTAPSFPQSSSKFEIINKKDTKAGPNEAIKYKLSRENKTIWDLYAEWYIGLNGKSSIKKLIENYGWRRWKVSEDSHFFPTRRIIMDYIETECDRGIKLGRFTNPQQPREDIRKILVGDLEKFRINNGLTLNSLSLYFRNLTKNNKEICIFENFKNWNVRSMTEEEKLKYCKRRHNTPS
# Experiment: PBM E-score (8-mer binding enrichment) (E-score (-0.5 to 0.5)); higher = stronger / more preferred TF binding; most listed sequences are background and not binding sites
# Details: protein concentration: 100 nM; construct: GST-full length
# How it was run: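 PURExpress in vitro transcription/translation supplied GST-tagged yeast transcription factors, either full-length or DNA-binding domain. Applied at about 100-200 nM to universal all-10-mer Agilent arrays double-stranded by primer extension, the bound protein was detected with fluorescent anti-GST. E-scores, modified Wilcoxon-Mann-Whitney statistics, were given by the Universal PBM Analysis Suite to ungapped eight-base words pooled with their reverse complements after masliner normalisation.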
row,Sequence,PBM E-score
1,GAATGTCA,0.0276
2,CTCACACA,0.1
3,CCAGACCA,0.0882
4,GCTAGAAA,0.0615
5,AGAATTAC,0.217
6,ACTACGCA,-0.178
7,AACGGGCC,-0.216
8,CAGAGAGC,-0.117
9,GGTTCGAC,-0.205
10,CAACCATC,-0.0953
11,CCCTTAGA,0.00852
12,CGTTCTCA,-0.128
13,TGACACAA,0.0905
14,CCATCCCA,-0.053
15,AATGTGTC,-0.143
16,ATGGGTCA,0.00551
17,ACAAATTA,0.0552
18,ATCTCCCC,-0.0855
19,AGTGCATA,-0.235
20,GCGTCTCC,0.317
21,CGAGACCC,-0.0499
22,CGTGTTCC,0.0364
23,CTTCGTTC,-0.0459
24,GAGACGAA,-0.0232
25,AAGAACTT,-0.118

row,Sequence,PBM E-score
1,TCGGCAGA,-0.355
2,ACCCAACC,-0.0604
3,CACCTGGC,-0.0993
4,GAGTAGGC,-0.115
5,ATACCACA,0.069
6,ATACGGTA,-0.0716
7,GCGGTAGC,0.0196
8,ATAATGAT,0.111
9,CTTTCTCA,0.097
10,GAAAAAAC,0.0384
11,CTTGATGC,-0.041
12,AGATGGAG,-0.0368
13,AGGTGCCA,0.191
14,AAATCAAG,0.0229
15,ACATGACA,-0.0788
16,ATGGTATG,-0.0617
17,GTATCTTA,0.157
18,CCAAATAA,0.11
19,CCAATCTC,0.0169
20,ACCTAACC,-0.129
21,AGGGGGAC,-0.0068
22,CCAGGTGA,-0.0722
23,ACCGCTTC,0.0447
24,GTTCCGAA,0.153
25,AGTACACT,-0.0698

row,Sequence,PBM E-score
1,TCAGCAGA,-0.0771
2,AACTGGTA,0.224
3,TTTCAAAA,0.00738
4,TAGGGGGA,0.0246
5,AACACCAG,-0.155
6,CCGAGCAG,-0.0428
7,ATTAACCA,-0.0192
8,GTGTTTTA,0.0808
9,CCTCCGGA,0.0678
10,AACGAGGT,0.0158
11,GGGCATGA,-0.16
12,CCCCGATC,-0.111
13,CTATATTC,-0.0208
14,ACGAGGCT,0.0987
15,CTAATGGA,0.217
16,CCGGAAGC,0.439
17,ATCTCCAA,0.0732
18,ACAGTAAG,-0.178
19,ATTCAACC,-0.0136
20,TAAGTGGA,0.287
21,AGTCGCTG,0.0679
22,GTCAAGCA,-0.029
23,AGTTAAAT,-0.0999
24,GTCCCTCA,-0.111
25,CGGTCTCA,-0.0959

row,Sequence,PBM E-score
1,ATCATCAA,-0.0509
2,ATTCTCTC,-0.0118
3,TCGATGAA,-0.136
4,TAGCGGGA,0.0585
5,GCTACAAC,0.0291
6,CGCTCGTA,0.131
7,TAACTGCA,-0.114
8,CTACAATA,0.1
9,AAGTGAGA,-0.107
10,CGGAACGC,0.117
11,AGCCTGGC,-0.15
12,GCAGGGGA,-0.102
13,GTAGCCCA,0.236
14,CTGCCTGC,0.00094
15,CACCCCTA,0.158
16,AGTAGACC,-0.17
17,CGCTTGGC,-0.137
18,CGAGACTA,0.0202
19,AGTTTAAC,-0.0771
20,GATGCGGC,0.299
21,GCTATAGA,-0.1
22,CGGACCTC,-0.241
23,CCGGAGTC,0.176
24,CAATATGA,0.0529
25,CACCGCCG,-0.0149

row,Sequence,PBM E-score
1,CTGTATCC,0.207
2,CCGTTGGC,0.0332
3,ATAAACGC,0.104
4,CAAGCTCG,-0.231
5,GCTAAGAC,-0.103
6,CGTTGCAA,-0.151
7,AATCTCTA,0.0126
8,ATACCCTA,-0.245
9,CGTGGGGA,0.0446
10,AGGGCCAT,-0.0677
11,AGCCCTGC,-0.00124
12,GTTCGTCA,-0.227
13,TAAACCGA,-0.235
14,CTAGGGCC,-0.236
15,CCGATCAC,-0.0358
16,CAGATGAG,0.0921
17,ATCGGTTC,0.0137
18,AGCCTTCC,-0.163
19,TACGGCTA,-0.144
20,AGCCATGG,-0.041
21,AACGGCTT,0.0183
22,CTCATGTC,0.0304
23,GCAGGTGA,-0.0333
24,ACTTAGGA,0.148
25,GTAGTTAA,0.046

row,Sequence,PBM E-score
1,GCCTTTGA,-0.0776
2,GGAGCCCA,0.349
3,GACTGTAA,0.0401
4,GGGGCCAA,0.0277
5,AGAGCTGG,-0.143
6,AGCACGCG,0.115
7,ACTCATTG,-0.0594
8,AGCTTGGC,-0.112
9,GGGAGTAA,-0.0474
10,AGGGGTAC,-0.0702
11,CTATTCAA,0.039
12,GTGACACA,0.0534
13,ACCGGGAA,0.114
14,CAGACGCG,0.136
15,AGCTCCGA,0.0227
16,CCGCTAAG,0.0943
17,CGGGCCCG,0.0511
18,AGTAGATG,0.148
19,CAGGCCAC,-0.244
20,ATGTAAGC,-0.0373
21,TATTATCA,0.064
22,CAATGACG,-0.168
23,AGGCCTTA,-0.194
24,ACGAACAC,0.0367
25,AGTGGCTA,-0.0284

row,Sequence,PBM E-score
1,GAGATTCA,-0.0394
2,TGGAAACA,0.132
3,GTAATCGA,-0.119
4,CCTAAAGA,0.169
5,AAATCCTG,0.022
6,CACCGTAC,0.125
7,AAGCGTCT,0.168
8,CTACGTAG,-0.0317
9,GGATTTTA,0.0994
10,TCTAATCA,0.0699
11,CATGCTTA,-0.258
12,ATCATGAC,-0.137
13,ATGAGAAC,0.0361
14,ACCGTAAT,0.121
15,GATGTCAC,-0.0837
16,AATAGACC,-0.0724
17,ACAAGCGG,0.172
18,CGGAACTC,-0.0112
19,CCAGCCGA,-0.0834
20,ACTATCAA,0.0353
21,CTCGTTTA,0.159
22,CGTTTCCA,0.104
